Measured values reported in patent US20230416360A1 (SIMCERE ZAIMING PHARMACEUTICAL, published 2023).

B1: S002-NB150-40 VHH-Fc (Fc fusion)
chain: QVQLVESGGGLVQDGGSLRLSCAASGLTFSFYNMGWFRQAPGKEREFVAAISQSGLSTHYADSMKGRFTISRDNAKNTVYLQMNSLNPVDTAAYYCAAGRRGYLASTTNDYEYWGQGTQVTVSS[human IgG1 Fc with changes cut from this listing]
notes: VHH cloned into vector BI3.4-huIgG1 (hinge and human IgG1 Fc), made in HEK293E; also called 5002-NB150-40
B2: S002-NB151-51 VHH-Fc (Fc fusion)
chain: QVQLVESGGGLVQAGGSLRLSCAASGITSDDYAIGWFRQAPGKEREGVSCMYSSDGSTYYADSVKGRFTISRDNAKNTVYLQMNSLRPEDTAVYHCAAGPWCFVTGVGREEWGQGTQVTVSS[human IgG1 Fc with changes cut from this listing]
notes: VHH cloned into vector BI3.4-huIgG1 (hinge and human IgG1 Fc), made in HEK293E; also called 5002-NB151-51
B3: S002-NB151-23 VHH-Fc (Fc fusion)
chain: QVQLVESGGGLVQAGGSLTVSCTNSGRTLSTSTIAWFRQKPGKDSEFVAAIRWSGGMGWYADSVKGRFTISRDNAENTVSLQMNTLQPEDTAVYFCAVSTVPYYGSIYTRVGDYPYWGQGTQVTVSS[human IgG1 Fc with changes cut from this listing]
notes: VHH cloned into vector BI3.4-huIgG1 (hinge and human IgG1 Fc), made in HEK293E; also called 5002-NB151-23
B4: S002-NB151-30 VHH-Fc (Fc fusion)
chain: QVQLVESGGGLVQAGGSLRLSCAASGRASGSGAMGWFRQAPGQERRFVAGIEWSSGGPVYADSVKGRFTLSRDNAKNTVHLQMNSLKPEDTAVYYCAAAPWVFSSPDDYMYWGQGTQVTVSS[human IgG1 Fc with changes cut from this listing]
notes: VHH cloned into vector BI3.4-huIgG1 (hinge and human IgG1 Fc), made in HEK293E; also called 5002-NB151-30
B5: S002-NB150-2 VHH-Fc (Fc fusion)
chain: QVQLVESGGGLVQPGGSLRLSCAASGSWFNIAMGWFRQAPGKEREFVAGIRWSDSKTYYADSVKGRFTISGDNAKNTTYLQMNSLKPEDTAVYYCAAQRYYRGSYNRQTNYDHWGQGTQVTVSS[human IgG1 Fc with changes cut from this listing]
notes: VHH cloned into vector BI3.4-huIgG1 (hinge and human IgG1 Fc), made in HEK293E; also called 5002-NB150-2
B6: S002-NB151-82 VHH-Fc (Fc fusion)
chain: EVQVVESGGGLVQAGDSLRLSCTTSGRTFYGDYIAWFRQAPGKEREFVAAIAVRGRGTFYGDSVKGRFTISRDNAENTLSLQMNSLKPEDTAVYYCAADAGSYASRGFPVRETGRYDYWGQGTQVTVSS[human IgG1 Fc with changes cut from this listing]
notes: VHH cloned into vector BI3.4-huIgG1 (hinge and human IgG1 Fc), made in HEK293E; also called 5002-NB151-82
B7: S002-NB151-14 VHH-Fc (Fc fusion)
chain: QVQLVESGGGLVQAGGSLRLSCTTSGGTLSRITMGWFRQAPGKEREFVAAIKWGGSSTPYSDSVKGRFTISRDNAKNTVYLQMDRLVPEDTAVYYCAGGLRGPYSDSVTSSVQYNYWGQGTQVTVSS[human IgG1 Fc with changes cut from this listing]
notes: VHH cloned into vector BI3.4-huIgG1 (hinge and human IgG1 Fc), made in HEK293E; also called 5002-NB151-14
B8: S002-NB151-13 VHH-Fc (Fc fusion)
chain: QVQLVESGGGLVQAGDSLRLSCAASTRIFRSYVMGWFRQAPGKEREAVASIRWSNDTGTYADSVKGRFTISRDNAKNTVYLQMNSLKPEDTAVYSCAADSPPWGRTWYTGYDYWGQGTQVTVSS[human IgG1 Fc with changes cut from this listing]
notes: VHH cloned into vector BI3.4-huIgG1 (hinge and human IgG1 Fc), made in HEK293E
B9: S002-NB150-5 VHH-Fc (Fc fusion)
chain: QLQLVESGGGLVQAGGSLRLSCVGSGDRVSIALMGWFRQAPGKEREFVAAISPSGGRITYSDSVKGRFTISRDNAKNTVYLQMNSLKRDDTAVYVCAANFRGYLSSSRGSDYAYWGQGTQVTVSS[human IgG1 Fc with changes cut from this listing]
notes: VHH cloned into vector BI3.4-huIgG1 (hinge and human IgG1 Fc), made in HEK293E; also called 5002-NB150-5
B10: S002-NB151-66 VHH-Fc (Fc fusion)
chain: QVQLVESGGGLVQAGGSLRLACAASGDTVSIYYMGWFRQAPGKEREFVGALSASGQFTDHADSVKGRFTISRDDAQNTVFLHMNDLKPEDTAVYYCAVQRYGWVYRTDKTMYNYWGQGTQVTVSS[human IgG1 Fc with changes cut from this listing]
notes: as for B8
B11: HA22 scFv-hFc (Fc fusion)
chain: EVQLVESGGGLVKPGGSLKLSCAASGFAFSIYDMSWVRQTPEKCLEWVAYISSGGGTTYYPDTVKGRFTISRDNAKNTLYLQMSSLKSEDTAMYYCARHSGYGTHWGVLFAYWGQGTLVTVSAGGGGSGGGGSGGGGSDIQMTQTTSSLSASLGDRVTISCRASQDISNYLNWYQQKPDGTVKLLIYYTSILHSGVPSRFSGSGSGTDYSLTISNLEQEDFATYFCQQGNTLPWTFGCGTKLEIK[human IgG1 Fc with changes cut from this listing]

Each binder was assayed against T1, human CD22-ECD-His (human, UniProt P20273 20-687) (assay: ELISA, coated hCD22-ECD-His, antibody 0.0001 nM).
T1 construct: Made in HEK293E, purified on nickel column; also called hCD22-ECD-His; recombinant human CD22-ECD His; not shown: His tag
T1 sequence: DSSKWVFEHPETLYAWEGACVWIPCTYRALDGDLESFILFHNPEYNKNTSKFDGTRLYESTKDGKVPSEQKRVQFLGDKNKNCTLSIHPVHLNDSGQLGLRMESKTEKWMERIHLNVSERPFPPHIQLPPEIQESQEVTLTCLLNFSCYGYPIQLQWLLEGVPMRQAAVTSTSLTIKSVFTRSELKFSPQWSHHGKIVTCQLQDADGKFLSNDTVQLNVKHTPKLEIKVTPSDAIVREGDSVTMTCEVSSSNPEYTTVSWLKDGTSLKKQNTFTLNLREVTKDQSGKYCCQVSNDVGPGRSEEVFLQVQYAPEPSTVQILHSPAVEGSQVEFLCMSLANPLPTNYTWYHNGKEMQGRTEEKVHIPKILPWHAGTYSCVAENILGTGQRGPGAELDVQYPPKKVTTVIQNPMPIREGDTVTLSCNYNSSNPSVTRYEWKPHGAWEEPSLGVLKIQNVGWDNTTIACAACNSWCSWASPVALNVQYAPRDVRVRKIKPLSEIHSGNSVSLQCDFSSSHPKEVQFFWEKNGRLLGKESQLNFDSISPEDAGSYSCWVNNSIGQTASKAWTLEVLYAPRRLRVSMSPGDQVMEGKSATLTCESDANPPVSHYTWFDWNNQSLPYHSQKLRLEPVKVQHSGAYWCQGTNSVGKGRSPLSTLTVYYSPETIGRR
Method: The plate was sealed with plastic film and incubated overnight at 4° C., the plate was washed 2 times with PBS the next day, and then a blocking solution [PBS+2% (w/w) BSA] was added for blocking at room temperature for 2 hours. […] After incubation at 37° C. for 2 hours, the plate was washed 3 times with PBS. HRP (horseradish peroxidase)-labeled secondary antibody (purchased from Sigma, catalog number: A0170) was added, and incubated at 37° C. for 2 hours, and the plate was washed 5 times with PBS. TMB substrate was added at 50 μl/well, and incubated at room temperature for 30 minutes, then a stop solution (1.0 N HCl) was added at 50 μl/well.

Point of comparison: B11, OD450 0.07. Against it:
- B1 — higher, 0.15
- B2 — higher, 0.1
- B3 — higher, 0.25
- B4 — higher, 0.11
- B5 — higher, 0.26
- B6 — higher, 0.13
- B7 — higher, 0.22
- B8 — higher, 0.25
- B9 — higher, 0.24
- B10 — higher, 0.15

What follows are binders tested against T2, cynomolgus monkey CD22 on peripheral blood B cells (cynomolgus monkey (Macaca fascicularis)) (assay: FACS, cynomolgus PBMC, CD20+ B cells, antibody 10 nM).
T2 construct: whole, on cells; also called cynomolgus monkey B cells
Method: (§1) After the cell suspension was centrifuged, the cells were resuspended in PBS containing 1% BSA, and then the cells were counted. […] After washing the cells three times, APC-labeled secondary antibody anti-human IgG Fc (catalog number: 409306, purchased from Biolegend) was added. After incubation at room temperature in the dark for 30 minutes, the cells were washed 5 times, gently resuspended with PBS containing 1% BSA, and detected and analyzed by FACS (FACS Canto™, purchased from BD Company).

Point of comparison: B5, “Proportion of VHH-Fc antibody positive cells to B cells (%)” value 80%. Against it:
- B1 — lower, 0%
- B2 — higher, 93%
- B3 — higher, 88%
- B4 — lower, 70%
- B6 — lower, 2%
- B7 — higher, 90%
- B8 — lower, 23%
- B9 — lower, 3%
- B10 — lower, 5%
- B11 — higher, 84%

The binders below were run against T2, cynomolgus monkey CD22 on peripheral … (assay: FACS, cynomolgus PBMC, CD20+ B cells, antibody 100 nM).
Method: as §1

Point of comparison: B11, “Proportion of VHH-Fc antibody positive cells to B cells (%)” value 96%. Against it:
- B1 — lower, 3%
- B2 — the same, 96%
- B3 — lower, 94%
- B4 — lower, 90%
- B5 — lower, 89%
- B6 — lower, 2%
- B7 — lower, 94%
- B8 — lower, 61%
- B9 — lower, 36%
- B10 — lower, 22%

These binders were tested against T1, human CD22-ECD-His (assay: SPR (Biacore), antibody captured on Protein A, hCD22-ECD-His analyte).
Method: Sample buffer and running buffer were HBS-EP+(10 mM HEPES, 150 mM NaCl, 3 mM EDTA, 0.05% surfactant P20) (GE Healthcare; BR-1006-69). The flow-through cell was set to 25° C. The sample block was set to 16° C. Both were pretreated with the running buffer. In each cycle, the antibody to be tested was first captured with a Protein A chip, then a single concentration of CD22 antigen protein was injected. The binding and dissociation process of the antibody and the antigen protein was recorded, and finally Glycine pH 1.5 (GE Healthcare; BR-1003-54) was used to complete chip regeneration. […] The concentration started from 200 nM (see the detailed results for the actual concentration in the test) and was diluted at 1:1, making a total of 5 concentrations. The dissociation phase was monitored for up to 600 s and was triggered by switching from sample solution to running buffer. The surface was regenerated by washing with a 10 mM of glycine solution (pH 1.5) for 30 s at a flow rate of 30 μL/min. Bulk refractive index difference was corrected by subtracting the response obtained from the goat anti-human Fc surface. Blank injection was also subtracted (=double reference). For calculation of apparent KD and other kinetic parameters, Langmuir 1:1 model was used.

Point of comparison: B2, Kd 0.52 nM. Against it:
- B1 — 12-fold higher, 6.27 nM
- B3 — 4.5-fold higher, 2.33 nM
- B4 — 12-fold higher, 6.09 nM
- B5 — 4.6-fold higher, 2.4 nM
- B6 — 56-fold higher, 29 nM
- B7 — 31-fold higher, 15.9 nM
- B8 — within 1.5-fold, 0.598 nM
- B9 — 7.1-fold higher, 3.71 nM
- B10 — 4.3-fold higher, 2.25 nM
- B11 — 2.6-fold higher, 1.37 nM

Point of comparison: B9, koff 0.000309 s⁻¹. Against it:
- B1 — 1.8-fold higher, 0.000541 s⁻¹
- B2 — 4.2-fold lower, 7.39e-05 s⁻¹
- B3 — 1.5-fold higher, 0.000476 s⁻¹
- B4 — 1.7-fold higher, 0.000514 s⁻¹
- B5 — 4.1-fold lower, 7.61e-05 s⁻¹
- B6 — 5.6-fold higher, 0.00174 s⁻¹
- B7 — within 1.5-fold, 0.000254 s⁻¹
- B8 — 8.6-fold lower, 3.58e-05 s⁻¹
- B10 — 1.8-fold higher, 0.000562 s⁻¹
- B11 — 2.8-fold lower, 0.000112 s⁻¹

Point of comparison: B9, kon 83200 M⁻¹ s⁻¹. Against it:
- B1 — within 1.5-fold, 86300 M⁻¹ s⁻¹
- B2 — 1.7-fold higher, 142000 M⁻¹ s⁻¹
- B3 — 2.5-fold higher, 204000 M⁻¹ s⁻¹
- B4 — within 1.5-fold, 84300 M⁻¹ s⁻¹
- B5 — 2.6-fold lower, 31700 M⁻¹ s⁻¹
- B6 — within 1.5-fold, 60000 M⁻¹ s⁻¹
- B7 — 5.2-fold lower, 16000 M⁻¹ s⁻¹
- B8 — within 1.5-fold, 59800 M⁻¹ s⁻¹
- B10 — 3-fold higher, 249000 M⁻¹ s⁻¹
- B11 — within 1.5-fold, 81500 M⁻¹ s⁻¹
